# Source: PubChem BioAssay AID1458 (National Center for Advancing Translational Sciences (NCATS), 2008)
# Where “and” joins values, the source holds several entries; their conditions need not be identical. Identical values can stand only once. About 5,900 (2.8%) of roughly 210,000 compounds were called active. This list was built around the results that the source calls inconclusive (neither active nor inactive); the mix of calls is not that of the screen. The call rests on the fitted dose curve; in most records, active means well fitted activation curve with a large enough effect; inconclusive means small, poorly fitted or top-dose-only effect; inactive means no such curve, though single readings can be large or run the other way. Where the call is inconclusive, the potency comes from a doubtful curve fit.
# Assay: qHTS Assay for Enhancers of SMN2 Splice Variant Expression; further: nearly all actives have a fitted effect of over 55% in size
# Conditions: HEK293 SMN2-luciferase splicing reporter, luminescence, 30-36 h; series mostly up to 46.1 µM
# Procedure, shortened: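 HEK293 cells carry an SMN2 minigene-luciferase reporter in which exon 7 inclusion puts luciferase in frame. Cells were seeded at 2000 cells/well, attached for 10-12 hours, then exposed to compounds for 30-36 hours at 37C before ONE-Glo luminescence.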
# Potency means the concentration at half of the fitted maximal effect; tags describe the fitted curve by direction and shape.
row,SMILES,Potency
1,O=Cc1cn(Cc2ccccc2)nc1-c1cccnc1,"inconclusive: 35.5 µM [activator, single point]"
2,COc1ccc(NS(=O)(=O)c2cccc(C(=O)N/N=C/c3cccs3)c2)cc1,"inconclusive: 0.0251 µM [activator, full curve]"
3,NC(=O)c1cccnc1Nc1ccccc1F,inactive
4,Cc1ccc2nc(C)/c(=N\O)c(C)nc2c1,inactive
5,Cc1ccc(-c2noc(-c3ccoc3C)n2)cc1,"inconclusive: 17.8 µM [activator, single point]"
6,COc1ccc(C(=O)Nc2cccc(C(=O)N3CCCC3)c2)cc1,"inconclusive: 0.316 µM [activator, full curve, poor fit]"
7,O=C(NN1C(=O)C2C3CCC(O3)C2C1=O)c1ccc(Br)o1 (configuration not stated),"inconclusive: 3.55 µM [activator, single point]"
8,CCOC(=O)NCc1ccc(Cl)c(Cl)c1,"inconclusive: 5.62 µM [activator, single point]"
9,CCOc1ccc(-n2c(-c3ccc(OC)cc3)c[n+]3c2CCCCC3)cc1,inactive
10,Cc1cccc(NC(=O)c2ccccc2O)c1C,inactive
11,CCS(=O)(=O)N1CCN(c2ccc([N+](=O)[O-])c(N3CCOCC3)c2)CC1,"inconclusive: 0.0251 µM [activator, full curve, poor fit]"
12,Cn1c(=N)n(CC(=O)C(C)(C)C)c2ccccc21,"inconclusive: 28.2 µM [activator, partial curve]"
13,COC(=O)c1ccccc1NC(=S)N(Cc1ccc2c(c1)OCO2)Cc1cc2cc(OC)ccc2[nH]c1=O,inactive
14,O=C1CCCCC1Sc1nnc(-c2ccc3c(c2)OCO3)o1 (configuration not stated),"inconclusive: 1 µM [activator, partial curve]"
15,Cc1cc(C)nc(Sc2nc(Nc3ccccc3)nc(Sc3nc(C)cc(C)n3)n2)n1,"inconclusive: 22.4 µM [activator, single point]"
16,CCOC(=O)N1CCN(C(=O)CSc2nc3c([nH]c4ccccc43)c(=O)n2C)CC1,inactive
17,COc1ncc2nc(-c3ccc(Cl)cc3)c(=O)n(CCc3ccccc3)c2n1,inactive
18,C/C(=N\NC(N)=O)c1cccc(Cl)c1,"inconclusive: 0.0089 µM [activator, full curve, poor fit]"
19,O=C(NCc1ccccc1)c1nc(S(=O)(=O)Cc2ccc(F)cc2)ncc1Cl,"inconclusive: 31.6 µM [activator, single point]"
20,COCc1cc(C)nc2sc(C(=O)N3CCCC3)c(N)c12,"inconclusive: 0.251 µM [activator, full curve, poor fit]"
21,CCOC(=O)c1ccc(NC(=O)c2ccc(NC(=O)c3ccccc3)cc2)cc1,"inconclusive: 35.5 µM [activator, single point]"
22,COc1ccccc1C(=O)N(Cc1nc(-c2cccc(C)c2)no1)C(C)C,inactive
23,CCc1ccc2nc(NC(=O)Cn3cnc4ccccc4c3=O)sc2c1,"inconclusive: 11.2 µM [activator, partial curve, poor fit]"
24,CC1=NN(Cc2ccccc2)C(=O)/C1=C\c1ccc(N(C)C)cc1,inactive

row,SMILES,Potency
1,Cn1c(O)c(C2=c3ccccc3=NC2=O)sc1=Nc1ccc(Cl)cc1,"inconclusive: 35.5 µM [activator, single point]"
2,CCn1c(C(=O)NCc2ccccc2OC)cc2sccc21,inactive
3,O=C1CC(/C=C/c2ccccc2)(C(=O)NC2CCCC2)N1c1ccc(S(=O)(=O)N2CCCC2)cc1 (configuration not stated),"inconclusive: 0.316 µM [activator, full curve, poor fit]"
4,COc1cc(C2C3=C(CCCC3=O)Nc3ccc4ncccc4c32)ccc1O (configuration not stated),"inconclusive: 7.08 µM [activator, full curve, poor fit]"
5,Cc1noc(C)c1COC(=O)c1cccc(N(C)C)c1,inactive
6,CC[C@H](C(=O)[C@H](C)[C@H](O)[C@H](C)CCc1ccc(C)c(O)c1C(=O)O)[C@H]1O[C@](CC)([C@@H]2CC[C@@](O)(CC)[C@H](C)O2)C[C@H]1C,inactive
7,C/C(=N\OC(=O)c1cccc(C(F)(F)F)c1)c1sc(-c2ccccc2)nc1C,active: 25.1 µM
8,O=C(CCN1CCN(C(=O)c2ccco2)CC1)Nc1ccc(F)cc1,"inconclusive: 4.47 µM [activator, partial curve, poor fit]"
9,O=C(COc1cccc(NC(=O)c2ccccc2)c1)c1ccc(F)cc1,inactive
10,COc1cc(-c2nnc(SCC(=O)N(C)C3CCS(=O)(=O)C3)o2)cc(OC)c1OC (configuration not stated),"inconclusive: 25.1 µM [activator, partial curve]"
11,COc1ccc2oc3ccc(OC)cc3c(=O)c2c1,"inconclusive: 20 µM [activator, single point]"
12,O=C(NC(C(=O)c1ccccc1)N1CCOCC1)c1cccs1 (configuration not stated),"inconclusive: 14.1 µM [activator, single point]"
13,O=C(NC(=S)NNC(=O)c1cnccn1)c1ccc(F)cc1,inactive
14,O=C1N=C(N2CCCCC2)S/C1=C\c1cn[nH]c1-c1ccccc1,"inconclusive: 22.4 µM [activator, partial curve, poor fit]"
15,O=C(NCCc1ccc(Cl)cc1)c1ccc2c(c1)N(Cc1ccccc1)CCS2,"inconclusive: 25.1 µM [activator, single point]"
16,COC(=O)C(NC(=O)C(NC(=O)c1ccccc1)C(C)C)C(C)C (configuration not stated),"inconclusive: 0.0355 µM [activator, full curve, poor fit]"
17,Cc1ccccc1Cn1c(C)c(CNCc2ccccc2)c(C(=O)O)c1C,inactive
18,CC(C)Oc1ccc(CNC(=O)c2ccc3nc(SCc4ccc(F)cc4)n(C)c3c2)cc1,inactive
19,C/C(=N\Nc1nc2c(s1)CCCC2)c1ccccc1,active: 11.2 µM
20,CC1CCN(c2oc(-c3ccccc3F)nc2C#N)CC1,"inconclusive: 11.2 µM [activator, single point]"
21,O=C(NCc1ccco1)c1cc(-c2ccc3c(c2)OCO3)on1,"inconclusive: 15.8 µM [activator, single point]"
22,Cc1ccc(-n2ncc3c2ncn2c(C)nnc32)cc1C,"inconclusive: 14.1 µM [activator, single point]"
23,Cn1cnc2cc(NC(=O)c3ccco3)ccc21,active: 7.08 µM
24,N#C/C(=C\c1ccc(-c2ccc(C(=O)O)cc2)o1)C(=O)NCC1CCCO1 (configuration not stated),"inconclusive: 35.5 µM [activator, single point]"

row,SMILES,Potency
1,COC(=O)[C@H](CC(C)C)NC(=O)NC1CCCCC1C (some centres not stated),"inconclusive: 6.31 µM [activator, full curve, poor fit]"
2,Cc1ccc(NC(=O)NCc2c(C)nn(C)c2C)cc1Cl,active: 15.8 µM
3,c1ccc(-c2ncnc3cc4n(c23)CCC4)cc1,inactive
4,Brc1ccccc1-c1nnc(CSc2nnnn2-c2ccccc2)o1,inactive
5,Cn1nnc(NC(=O)c2cccc(OCc3ccccc3)c2)n1,"inconclusive: 11.2 µM [activator, partial curve, poor fit]"
6,COc1ccc(-c2nc(-c3cccc(C)c3)nc(N3CCN(C)CC3)c2C#N)cc1,"inconclusive: 0.447 µM [activator, full curve, poor fit]"
7,CN(C)c1nc(N)nc(CSc2nc3cc(Cl)ccc3o2)n1,inactive
8,CCCc1nnc(NC(=O)c2ccc([N+](=O)[O-])cc2)s1,"inconclusive: 10 µM [activator, partial curve, poor fit]"
9,CSc1nc(-c2ccccc2)nn1C(=O)c1ccc(Cl)cc1,"inconclusive: 15.8 µM [activator, partial curve, poor fit]"
10,CCOc1ccc(Nc2nc3ccccc3c3nnc(CC)n23)cc1,inactive
11,NC(=O)NC(Cc1ccccc1)C(=O)Nc1ccc(S(N)(=O)=O)cc1 (configuration not stated),"inconclusive: 2.24 µM [activator, full curve, poor fit]"
12,NC(=O)C(=O)N/N=C1\CCc2ccccc21,active: 12.6 µM
13,CC(c1ccco1)N(C(=O)COc1ccc(Cl)cc1)c1ccccn1 (configuration not stated),"inconclusive: 5.62 µM [activator, single point]"
14,Cc1ccc(-n2nc3cc(Cl)c(NC(=O)c4ccco4)cc3n2)cc1,"inconclusive: 35.5 µM [activator, single point]"
15,COc1cc(NS(=O)(=O)c2ccc(Cl)cc2)c(C(=O)O)cc1OC,inactive
16,CNc1nnc(CSc2nc3ccccc3s2)s1,"inconclusive: 17.8 µM [activator, single point]"
17,COc1ccc(OCC(O)CON2C(=O)c3ccccc3C2=O)cc1 (configuration not stated),"inconclusive: 5.62 µM [activator, single point]"
18,CC(C)C(=O)Nc1ccc2c(c1)oc1ccccc12,"inconclusive: 10 µM [activator, partial curve, poor fit]"
19,COc1ccccc1Nc1nc(C)cs1,"inactive and inconclusive: 20 µM [activator, single point]"
20,Cc1ccc(N2CC(C(=O)OCC(=O)Nc3ccccc3F)CC2=O)cc1 (configuration not stated),"inconclusive: 3.55 µM [activator, full curve, poor fit]"
21,COc1ccccc1-c1cc(C(=O)N/N=C/c2cccs2)c2ccccc2n1,"inconclusive: 22.4 µM [activator, single point]"
22,O=C(CN1CCOCC1)N/N=C/c1ccc(C(=O)O)cc1,"inconclusive: 15.8 µM [activator, single point]"
23,CC(NC(=O)COc1ccc(Br)cc1)C(=O)O (configuration not stated),"inconclusive: 0.01 µM [activator, full curve, poor fit]"
24,CC(=O)Nc1ccc(-c2cn3cccnc3n2)cc1,"inconclusive: 12.6 µM [activator, partial curve]"
